# Experimental data: the supplement of paper PMC8728848
# The other results are listed elsewhere or left out.
# B1: Thrombomodulin (Mus musculus) (protein)
# chain: ALAKLQPTGSQCVEHECFALFQGPATFLDASQACQRLQGHLMTVRSSVAADVISLLLSQSSMDLGPWIGLQLPQGCDDPVHLGPLRGFQWVTGDNHTSYSRWARPNDQTAPLCGPLCVTVSTATEAAPGEPAWEEKPCETETQGFLCEFYFTASC
# Columns and labels:
# Assay in all cases: glycan array binding signal (z-score within array); higher = stronger binding
# Settings in all cases: glycan notation: IUPAC condensed, linker removed
# [1] = target: Glc(b1-6)Glc
# Outline: (§1)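 Negative Z-scores can be read as non-binding. The Z-score is calculated within each array and then averaged across arrays of one protein sequence at different concentrations or buffers and across linkers. Arrays, 3228 in all, were curated from the Consortium for Functional Glycomics database and kept only where the protein sequence was available.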
# [2] = target: GlcA(b1-3)Gal
# Outline: as §1
# [3] = target: GlcA(b1-3)GlcNAc
# Outline: as §1
# [4] = target: GlcA(b1-6)Gal
# Outline: as §1
# [5] = target: GlcA3S(b1-3)Gal(b1-4)GlcNAc(b1-2)Man
# Outline: as §1
# [6] = target: GlcA3S(b1-3)Gal(b1-4)GlcNAc(b1-3)Gal(b1-4)Glc
# Outline: as §1
# [7] = target: GlcNAc(a1-3)Gal(b1-4)GlcNAc
# Outline: as §1
# [8] = target: GlcNAc(a1-4)Gal(b1-3)GlcNAc
# Outline: as §1
# [9] = target: GlcNAc(a1-4)Gal(b1-4)GalNAc
# Outline: as §1
# [10] = target: GlcNAc(a1-4)Gal(b1-4)GlcNAc
# Outline: as §1
# [11] = target: GlcNAc(a1-4)Gal(b1-4)GlcNAc(b1-3)Gal(b1-4)Glc
# Outline: as §1
# [12] = target: GlcNAc(a1-4)Gal(b1-4)GlcNAc(b1-3)Gal(b1-4)GlcNAc
# Outline: as §1
# [13] = target: GlcNAc(a1-4)Gal(b1-4)GlcNAc(b1-3)Gal(b1-4)GlcNAc(b1-3)Gal(b1-4)GlcNAc
# Outline: as §1
# [14] = target: GlcNAc(a1-4)Gal(b1-4)GlcNAc(b1-3)Gal(b1-4)[Fuc(a1-3)]GlcNAc(b1-3)Gal(b1-4)[Fuc(a1-3)]GlcNAc
# Outline: as §1
# [15] = target: GlcNAc(a1-6)Gal(b1-4)GlcNAc
# Outline: as §1
# [16] = target: GlcNAc(b1-2)Gal(b1-3)GalNAc
# Outline: as §1
# [17] = target: GlcNAc(b1-2)Man(a1-3)[GlcNAc(b1-2)Man(a1-6)]Man(b1-4)GlcNAc(b1-4)GlcNAc
# Outline: as §1
# [18] = target: GlcNAc(b1-2)Man(a1-3)[GlcNAc(b1-2)Man(a1-6)]Man(b1-4)GlcNAc(b1-4)[Fuc(a1-6)]GlcNAc
# Outline: as §1
# [19] = target: GlcNAc(b1-2)Man(a1-3)[GlcNAc(b1-4)][GlcNAc(b1-2)Man(a1-6)]Man(b1-4)GlcNAc(b1-4)GlcNAc
# Outline: as §1
# [20] = target: GlcNAc(b1-2)Man(a1-3)[GlcNAc(b1-4)][GlcNAc(b1-2)Man(a1-6)]Man(b1-4)GlcNAc(b1-4)[Fuc(a1-6)]GlcNAc
# Outline: as §1
# [21] = target: GlcNAc(b1-2)[GlcNAc(b1-4)]Man(a1-3)[GlcNAc(b1-2)Man(a1-6)]Man(b1-4)GlcNAc(b1-4)GlcNAc
# Outline: as §1
# [22] = target: GlcNAc(b1-2)[GlcNAc(b1-4)]Man(a1-3)[GlcNAc(b1-4)][GlcNAc(b1-2)Man(a1-6)]Man(b1-4)GlcNAc(b1-4)GlcNAc
# Outline: as §1
# [23] = target: GlcNAc(b1-2)[GlcNAc(b1-4)]Man(a1-3)[GlcNAc(b1-4)][GlcNAc(b1-2)[GlcNAc(b1-6)]Man(a1-6)]Man(b1-4)GlcNAc(b1-4)GlcNAc
# Outline: as §1
# [24] = target: GlcNAc(b1-2)[GlcNAc(b1-4)]Man(a1-3)[GlcNAc(b1-4)][GlcNAc(b1-2)[GlcNAc(b1-6)]Man(a1-6)]Man(b1-4)GlcNAc(b1-4)[Fuc(a1-6)]GlcNAc
# Outline: as §1
# [25] = target: GlcNAc(b1-2)[GlcNAc(b1-6)]Man(a1-6)[GlcNAc(b1-2)Man(a1-3)]Man(b1-4)GlcNAc(b1-4)GlcNAc
# Outline: as §1
# [26] = target: GlcNAc(b1-2)[GlcNAc(b1-6)]Man(a1-6)[GlcNAc(b1-2)Man(a1-3)]Man(b1-4)GlcNAc(b1-4)[Fuc(a1-6)]GlcNAc
# Outline: as §1
# [27] = target: GlcNAc(b1-2)[GlcNAc(b1-6)]Man(a1-6)[GlcNAc(b1-4)][GlcNAc(b1-2)Man(a1-3)]Man(b1-4)GlcNAc(b1-4)GlcNAc
# Outline: as §1
# [28] = target: GlcNAc(b1-3)Fuc
# Outline: as §1
# [29] = target: GlcNAc(b1-3)Gal
# Outline: as §1
# [30] = target: GlcNAc(b1-3)Gal(b1-3)GalNAc
# Outline: as §1
# [31] = target: GlcNAc(b1-3)Gal(b1-4)Glc
# Outline: as §1
# [32] = target: GlcNAc(b1-3)Gal(b1-4)GlcNAc
# Outline: as §1
# [33] = target: GlcNAc(b1-3)Gal(b1-4)GlcNAc(b1-2)Man(a1-3)[GlcNAc(b1-3)Gal(b1-4)GlcNAc(b1-2)Man(a1-6)]Man(b1-4)GlcNAc(b1-4)GlcNAc
# Outline: as §1
# [34] = target: GlcNAc(b1-3)Gal(b1-4)GlcNAc(b1-2)Man(a1-3)[GlcNAc(b1-3)Gal(b1-4)GlcNAc(b1-2)Man(a1-6)]Man(b1-4)GlcNAc(b1-4)[Fuc(a1-6)]GlcNAc
# Outline: as §1
# [35] = target: GlcNAc(b1-3)Gal(b1-4)GlcNAc(b1-2)[GlcNAc(b1-3)Gal(b1-4)GlcNAc(b1-6)]Man(a1-6)[GlcNAc(b1-3)Gal(b1-4)GlcNAc(b1-2)Man(a1-3)]Man(b1-4)GlcNAc(b1-4)GlcNAc
# Outline: as §1
# [36] = target: GlcNAc(b1-3)Gal(b1-4)GlcNAc(b1-3)Gal(b1-4)GlcNAc
# Outline: as §1
# [37] = target: GlcNAc(b1-3)Gal(b1-4)GlcNAc(b1-3)Gal(b1-4)GlcNAc(b1-2)Man(a1-3)[GlcNAc(b1-3)Gal(b1-4)GlcNAc(b1-3)Gal(b1-4)GlcNAc(b1-2)Man(a1-6)]Man(b1-4)GlcNAc(b1-4)GlcNAc
# Outline: as §1
# [38] = target: GlcNAc(b1-3)Gal(b1-4)GlcNAc(b1-3)Gal(b1-4)GlcNAc(b1-2)Man(a1-3)[GlcNAc(b1-3)Gal(b1-4)GlcNAc(b1-3)Gal(b1-4)GlcNAc(b1-2)Man(a1-6)]Man(b1-4)GlcNAc(b1-4)[Fuc(a1-6)]GlcNAc
# Outline: as §1
# [39] = target: GlcNAc(b1-3)Gal(b1-4)GlcNAc(b1-3)Gal(b1-4)GlcNAc(b1-2)[GlcNAc(b1-3)Gal(b1-4)GlcNAc(b1-3)Gal(b1-4)GlcNAc(b1-6)]Man(a1-6)[GlcNAc(b1-3)Gal(b1-4)GlcNAc(b1-3)Gal(b1-4)GlcNAc(b1-2)Man(a1-3)]Man(b1-4)GlcNAc(b1-4)[Fuc(a1-6)]GlcNAc
# Outline: as §1
# [40] = target: GlcNAc(b1-3)Gal(b1-4)GlcNAc(b1-3)Gal(b1-4)GlcNAc(b1-3)Gal(b1-4)GlcNAc(b1-2)Man(a1-3)[GlcNAc(b1-3)Gal(b1-4)GlcNAc(b1-3)Gal(b1-4)GlcNAc(b1-3)Gal(b1-4)GlcNAc(b1-2)Man(a1-6)]Man(b1-4)GlcNAc(b1-4)GlcNAc
# Outline: as §1
# [41] = target: GlcNAc(b1-3)Gal(b1-4)GlcNAc(b1-3)Gal(b1-4)GlcNAc(b1-3)Gal(b1-4)GlcNAc(b1-2)Man(a1-3)[GlcNAc(b1-3)Gal(b1-4)GlcNAc(b1-3)Gal(b1-4)GlcNAc(b1-3)Gal(b1-4)GlcNAc(b1-2)Man(a1-6)]Man(b1-4)GlcNAc(b1-4)[Fuc(a1-6)]GlcNAc
# Outline: as §1
# [42] = target: GlcNAc(b1-3)Gal(b1-4)GlcNAc(b1-3)Gal(b1-4)GlcNAc(b1-3)Gal(b1-4)GlcNAc(b1-2)[GlcNAc(b1-3)Gal(b1-4)GlcNAc(b1-3)Gal(b1-4)GlcNAc(b1-3)Gal(b1-4)GlcNAc(b1-6)]Man(a1-6)[GlcNAc(b1-3)Gal(b1-4)GlcNAc(b1-3)Gal(b1-4)GlcNAc(b1-3)Gal(b1-4)GlcNAc(b1-2)Man(a1-3)]Man(b1-4)GlcNAc(b1-4)[Fuc(a1-6)]GlcNAc
# Outline: as §1
# [43] = target: GlcNAc(b1-3)Gal(b1-4)GlcNAc(b1-3)Gal(b1-4)GlcNAc(b1-3)Gal(b1-4)GlcNAc(b1-3)Gal(b1-4)GlcNAc(b1-2)Man(a1-3)[GlcNAc(b1-3)Gal(b1-4)GlcNAc(b1-3)Gal(b1-4)GlcNAc(b1-3)Gal(b1-4)GlcNAc(b1-3)Gal(b1-4)GlcNAc(b1-2)Man(a1-6)]Man(b1-4)GlcNAc(b1-4)GlcNAc
# Outline: as §1
# [44] = target: GlcNAc(b1-3)Gal(b1-4)GlcNAc(b1-3)Gal(b1-4)GlcNAc(b1-3)Gal(b1-4)GlcNAc(b1-3)Gal(b1-4)GlcNAc(b1-2)Man(a1-3)[GlcNAc(b1-3)Gal(b1-4)GlcNAc(b1-3)Gal(b1-4)GlcNAc(b1-3)Gal(b1-4)GlcNAc(b1-3)Gal(b1-4)GlcNAc(b1-2)Man(a1-6)]Man(b1-4)GlcNAc(b1-4)[Fuc(a1-6)]GlcNAc
# Outline: as §1
# [45] = target: GlcNAc(b1-3)Gal(b1-4)GlcNAc(b1-3)Gal(b1-4)GlcNAc(b1-3)Gal(b1-4)GlcNAc(b1-3)Gal(b1-4)GlcNAc(b1-2)[GlcNAc(b1-3)Gal(b1-4)GlcNAc(b1-3)Gal(b1-4)GlcNAc(b1-3)Gal(b1-4)GlcNAc(b1-3)Gal(b1-4)GlcNAc(b1-6)]Man(a1-6)[GlcNAc(b1-3)Gal(b1-4)GlcNAc(b1-3)Gal(b1-4)GlcNAc(b1-3)Gal(b1-4)GlcNAc(b1-3)Gal(b1-4)GlcNAc(b1-2)Man(a1-3)]Man(b1-4)GlcNAc(b1-4)[Fuc(a1-6)]GlcNAc
# Outline: as §1
binder,measurement,setting,value
B1,glycan array binding signal (z-score),[1],-0.231
same,glycan array binding signal (z-score),[2],-0.295
same,glycan array binding signal (z-score),[3],0.083
same,glycan array binding signal (z-score),[4],-0.236
same,glycan array binding signal (z-score),[5],-0.132
same,glycan array binding signal (z-score),[6],-0.476
same,glycan array binding signal (z-score),[7],-0.129
same,glycan array binding signal (z-score),[8],-0.238
same,glycan array binding signal (z-score),[9],-0.394
same,glycan array binding signal (z-score),[10],-0.436
same,glycan array binding signal (z-score),[11],-0.282
same,glycan array binding signal (z-score),[12],-0.183
same,glycan array binding signal (z-score),[13],-0.453
same,glycan array binding signal (z-score),[14],0.047
same,glycan array binding signal (z-score),[15],-0.229
same,glycan array binding signal (z-score),[16],0.013
same,glycan array binding signal (z-score),[17],-0.244
same,glycan array binding signal (z-score),[18],-0.317
same,glycan array binding signal (z-score),[19],-0.227
same,glycan array binding signal (z-score),[20],-0.052
same,glycan array binding signal (z-score),[21],0.101
same,glycan array binding signal (z-score),[22],1.03
same,glycan array binding signal (z-score),[23],-0.374
same,glycan array binding signal (z-score),[24],-0.228
same,glycan array binding signal (z-score),[25],0.026
same,glycan array binding signal (z-score),[26],-0.148
same,glycan array binding signal (z-score),[27],-0.367
same,glycan array binding signal (z-score),[28],0.141
same,glycan array binding signal (z-score),[29],-0.098
same,glycan array binding signal (z-score),[30],0.096
same,glycan array binding signal (z-score),[31],-0.068
same,glycan array binding signal (z-score),[32],-0.109
same,glycan array binding signal (z-score),[33],-0.135
same,glycan array binding signal (z-score),[34],0.2
same,glycan array binding signal (z-score),[35],-0.077
same,glycan array binding signal (z-score),[36],-0.109
same,glycan array binding signal (z-score),[37],0.553
same,glycan array binding signal (z-score),[38],-0.017
same,glycan array binding signal (z-score),[39],-0.284
same,glycan array binding signal (z-score),[40],0.477
same,glycan array binding signal (z-score),[41],0.254
same,glycan array binding signal (z-score),[42],-0.094
same,glycan array binding signal (z-score),[43],0.02
same,glycan array binding signal (z-score),[44],-0.16
same,glycan array binding signal (z-score),[45],0.068
